Patent publication US20120107330A1 (published 2012)

T1: human TNFR1 on MRC-5 cells (human, UniProt P19438 30-455)
T1 sequence (looked up): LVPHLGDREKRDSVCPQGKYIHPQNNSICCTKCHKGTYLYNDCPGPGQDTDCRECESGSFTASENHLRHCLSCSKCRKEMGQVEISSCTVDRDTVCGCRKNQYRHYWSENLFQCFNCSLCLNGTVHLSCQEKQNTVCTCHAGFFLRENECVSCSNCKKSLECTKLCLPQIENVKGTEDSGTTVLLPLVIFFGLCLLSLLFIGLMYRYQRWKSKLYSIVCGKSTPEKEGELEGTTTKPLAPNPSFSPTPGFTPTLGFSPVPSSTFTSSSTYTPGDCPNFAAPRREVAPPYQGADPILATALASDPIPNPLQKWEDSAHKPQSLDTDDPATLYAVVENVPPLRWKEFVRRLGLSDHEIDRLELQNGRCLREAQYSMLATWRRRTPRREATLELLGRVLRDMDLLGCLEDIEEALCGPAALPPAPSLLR

T2: mouse TNFR1 on L929 cells (mouse, UniProt P25118 30-454)
T2 sequence (looked up): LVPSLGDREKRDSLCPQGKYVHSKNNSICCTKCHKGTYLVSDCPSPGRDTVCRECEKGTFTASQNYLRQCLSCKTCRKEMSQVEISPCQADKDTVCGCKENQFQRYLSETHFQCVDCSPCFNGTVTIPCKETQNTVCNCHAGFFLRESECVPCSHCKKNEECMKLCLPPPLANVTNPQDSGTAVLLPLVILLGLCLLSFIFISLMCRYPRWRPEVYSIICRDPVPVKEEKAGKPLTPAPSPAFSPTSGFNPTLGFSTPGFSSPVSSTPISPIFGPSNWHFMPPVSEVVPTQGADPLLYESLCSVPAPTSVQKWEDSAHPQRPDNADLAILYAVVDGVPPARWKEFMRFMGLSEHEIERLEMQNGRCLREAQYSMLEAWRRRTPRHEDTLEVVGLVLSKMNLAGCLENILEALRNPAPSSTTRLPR

T3: Cynomologus monkey TNFR1 on CYNOM-K1 cells (Cynomolgus monkey, UniProt Q2PFV5 30-455)
T3 sequence: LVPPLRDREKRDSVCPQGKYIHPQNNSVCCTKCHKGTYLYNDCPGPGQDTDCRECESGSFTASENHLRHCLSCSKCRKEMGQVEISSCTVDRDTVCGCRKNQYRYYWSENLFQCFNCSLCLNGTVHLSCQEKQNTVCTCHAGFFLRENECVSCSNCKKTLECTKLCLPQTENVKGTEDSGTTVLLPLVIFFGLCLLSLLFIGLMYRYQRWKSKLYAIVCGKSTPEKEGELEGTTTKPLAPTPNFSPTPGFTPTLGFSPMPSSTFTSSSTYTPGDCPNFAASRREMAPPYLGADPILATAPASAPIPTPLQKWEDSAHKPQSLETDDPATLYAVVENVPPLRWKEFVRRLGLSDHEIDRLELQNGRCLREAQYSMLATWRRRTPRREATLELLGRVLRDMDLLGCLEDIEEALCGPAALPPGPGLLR

T4: human TNFR1 (recombinant, R&D Systems cat no. 636-R1/CF, biotinylated) (human, UniProt P19438 30-211, limits assumed, biotinylated with EZ-Link NHS-LC-LC-biotin)
T4 construct: it is not tied to the BIAcore reagent; also called p55; hTNFR1
T4 sequence (looked up): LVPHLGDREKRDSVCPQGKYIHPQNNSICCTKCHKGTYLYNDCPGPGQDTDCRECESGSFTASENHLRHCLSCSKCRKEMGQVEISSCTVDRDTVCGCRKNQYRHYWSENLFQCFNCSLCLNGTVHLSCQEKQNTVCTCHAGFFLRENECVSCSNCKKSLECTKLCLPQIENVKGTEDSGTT

T5: mouse TNFR1 (recombinant, R&D Systems cat no. 425-R1-050/CF, biotinylated) (mouse, UniProt P25118 22-212, biotinylated with EZ-Link NHS-LC-LC-biotin)
T5 construct: also called murine TNFR1; biotinylated mouse TNFR1
T5 sequence (looked up): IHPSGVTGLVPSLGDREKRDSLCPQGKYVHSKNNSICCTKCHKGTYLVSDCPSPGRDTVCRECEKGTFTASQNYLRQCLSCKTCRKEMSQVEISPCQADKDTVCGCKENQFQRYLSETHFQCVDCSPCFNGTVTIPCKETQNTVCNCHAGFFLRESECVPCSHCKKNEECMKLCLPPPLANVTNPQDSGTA

B1: DOM1h-574-126 (other)
VH: EVQLLESGGGLVQPGGSLRLSCAASGFTFVKYSMGWVRQAPGKGLEWVSQIANTGDRRYYAH[here about 20 residues without letters]MNSLRAEDTAVYYCAIYTGRWEPFVYWGQGTLVTVSS
notes: VH dAb
B2: DOM1h-574-180 (other)
VH: EVQLLESGGGLVQPGGSLRLSCAASGFTFVKYSMGWVRQAPGKGLEWVSQISDTADRTYYAH[here about 20 residues without letters]MNSLRAEDTAVYYCAIYTGRWVPFEYWGQGTLVTVSS
notes: VH dAb
B3: DMS0136 (bispecific antibody)
chain: EVQLLESGGGLVQPGGSLRLSCAASGFTFVKYSMGWVRQAPGKGLEWVSQISDTADRTYYAH[here about 20 residues without letters]MNSLRAEDTAVYYCAIYTGRWVPFEYWGQGTLVTVSSASTDIQMTQSPSSLSASVGDRVTITCRASRPIGTTLSWYQQKPGKAPKLLILWNSRLQSGVPSRFSGSGSGTDFTLTISSLQPEDFATYYCAQAGTHPTTFGQGTKVEIKR
notes: anti-TNFR1 dAb / AlbudAb in-line fusion

Tests used:
[1] = target: T1, human TNFR1 on MRC-5 cells; assay: cell-based or functional assay
[2] = target: T2, mouse TNFR1 on L929 cells; assay: cell-based or functional assay
[3] = target: T3, Cynomologus monkey TNFR1 on CYNOM-K1 …; assay: cell-based or functional assay
[4] = target: T4, human TNFR1 (recombinant, R&D Systems …); assay: BIAcore, human TNFR1 on SA chip
From the text: (§1) BIAcore was done to determine the association and dissociation rates of the different dAbs and in that way establish their binding affinity for both human and mouse TNFR1. Experiments were done using biotinylated TNFR1 (R&D Systems), of the respective species, coupled to streptavidin-coated BIAcore chips followed by injection of a concentration range of the dAbs.

[5] = target: T5, mouse TNFR1 (recombinant, R&D Systems …); assay: BIAcore, mouse TNFR1 on SA chip
From the text: as §1

[6] = target: T1, human TNFR1 on MRC-5 cells; assay: cell-based or functional assay; remark: listed apart in the source
[7] = target: T2, mouse TNFR1 on L929 cells; assay: cell-based or functional assay; remark: listed apart in the source
[8] = target: T4, human TNFR1 (recombinant, R&D Systems …); assay: BIAcore, TNFR1 (species not given, taken as human)

Row | Binder | Human MRC5 ND50 [1] | Mouse L929 ND50 [2] | Cynomologus CYNOM-K1 ND50 [3] | Kd [4] | koff [4] | kon [4] | Kd [5] | koff [5] | kon [5] | MRC5 ND50 [6] | L929 ND50 [7] | Kd [8] | koff [8] | kon [8]
1 | B1 | 1.9 nM | 35 nM | 1.2 nM | 0.21 nM | 7.9e-05 s⁻¹ | 380000 M⁻¹ s⁻¹ | 4.4 nM | 0.00068 s⁻¹ | 160000 M⁻¹ s⁻¹ | – | – | – | – | –
2 | B2 | 1.9 nM | 34 nM | – | 0.15 nM | 4.1e-05 s⁻¹ | 270000 M⁻¹ s⁻¹ | 2.7 nM | 0.00032 s⁻¹ | 120000 M⁻¹ s⁻¹ | – | – | – | – | –
3 | B3 | – | – | – | – | – | – | – | – | – | 1.97 nM | 5.4 nM | 0.3 nM | 5.5e-05 s⁻¹ | 190000 M⁻¹ s⁻¹
